# The BET-seq Pho4 binding data (Le et al. 2018)
# The other results are listed elsewhere or left out. Values were computed here from the reads of four pooled replicates and scatter widely.
# Biological target: T1, Pho4 (S. cerevisiae) (UniProt P07270)
# T1 sequence: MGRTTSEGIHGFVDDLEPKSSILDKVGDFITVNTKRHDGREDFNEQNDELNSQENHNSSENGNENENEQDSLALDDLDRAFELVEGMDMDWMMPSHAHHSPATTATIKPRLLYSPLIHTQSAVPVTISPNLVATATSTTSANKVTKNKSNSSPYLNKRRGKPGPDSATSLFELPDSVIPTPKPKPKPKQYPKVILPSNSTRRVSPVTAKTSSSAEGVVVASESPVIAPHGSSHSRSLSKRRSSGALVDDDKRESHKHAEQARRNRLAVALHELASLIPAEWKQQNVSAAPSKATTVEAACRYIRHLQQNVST
# Test: relative binding free energy (BET-seq); higher = weaker binding
# Conditions: reference: library average
row,Sequence,relative binding free energy
1,GTGTACACGTGGTATT,0.335 kJ/mol
2,GACTTCACGTGAGGGG,1.42 kJ/mol
3,GTAATCACGTGTAGGT,0.879 kJ/mol
4,TTATACACGTGTCGGG,0.586 kJ/mol
5,TTTAACACGTGTGTTC,0.377 kJ/mol
6,TGCGGCACGTGGGATG,-1.13 kJ/mol
7,TTTGACACGTGGGTGA,-0.544 kJ/mol
8,GTTAGCACGTGCGTGT,-0.377 kJ/mol
9,GGTGCCACGTGAATAG,0.837 kJ/mol
10,CCGTGCACGTGGCGGG,-0.795 kJ/mol
11,GGCCACACGTGGGGGG,-0.209 kJ/mol
12,TAGTGCACGTGATGAA,0.126 kJ/mol
13,AGCGTCACGTGGGTTT,-0.46 kJ/mol
14,TTACGCACGTGAGAGG,0.92 kJ/mol
15,GACGTCACGTGAGTTT,1.84 kJ/mol
16,AGTGGCACGTGCAGGT,-0.544 kJ/mol
17,CTAAGCACGTGGGGGA,-1.09 kJ/mol
18,AAGTTCACGTGTGGGA,1.05 kJ/mol
19,GTGTTCACGTGCATTG,1.13 kJ/mol
20,TGTGGCACGTGATTTG,0.251 kJ/mol
21,TGCGGCACGTGATAGA,0.167 kJ/mol
22,GGCGTCACGTGCTTGG,0.418 kJ/mol
23,TATGACACGTGAAGGG,0.92 kJ/mol

row,Sequence,relative binding free energy
1,GTGGTCACGTGCTCGT,0.335 kJ/mol
2,ACAGTCACGTGTATGG,0.126 kJ/mol
3,AGGGGCACGTGGATAA,-0.335 kJ/mol
4,TAGGCCACGTGGCAGT,-0.293 kJ/mol
5,TTTGACACGTGCGGAT,-0.167 kJ/mol
6,TATGACACGTGATAAG,1.21 kJ/mol
7,CTATTCACGTGCGTGG,1 kJ/mol
8,TCGAGCACGTGTATTG,-0.167 kJ/mol
9,AAGTGCACGTGAGTAT,0.962 kJ/mol
10,CTCTGCACGTGGGAGT,0 kJ/mol
11,CGGTGCACGTGGGGTA,-1.26 kJ/mol
12,ATGGCCACGTGATGGG,0.293 kJ/mol
13,ATGTGCACGTGGAGTA,-0.377 kJ/mol
14,GGGTCCACGTGTTTGA,0.126 kJ/mol
15,TATGGCACGTGGTACA,-0.669 kJ/mol
16,GGGTGCACGTGCGTCG,-0.837 kJ/mol
17,ACTGGCACGTGGTGTA,-1 kJ/mol
18,GTTCGCACGTGAGTTA,0.669 kJ/mol
19,TTGCTCACGTGAGAGG,1.59 kJ/mol
20,AGAATCACGTGAAGGG,1.72 kJ/mol
21,CTTTTCACGTGACTGG,1.38 kJ/mol
22,CTCGTCACGTGGTTTT,0.962 kJ/mol
23,CATGGCACGTGGGTCT,-0.46 kJ/mol

row,Sequence,relative binding free energy
1,TAGTGCACGTGGAATG,-0.251 kJ/mol
2,TAATTCACGTGTCTGA,1.3 kJ/mol
3,GTGTTCACGTGCGTGG,1.17 kJ/mol
4,GGGCTCACGTGGTTTA,0.962 kJ/mol
5,GTTGCCACGTGTGGGC,0.209 kJ/mol
6,GTGGTCACGTGGCATG,0.544 kJ/mol
7,TCTTGCACGTGTGGGA,0.126 kJ/mol
8,TTAACCACGTGGGTGA,-0.46 kJ/mol
9,GATGGCACGTGTGGGT,-0.0837 kJ/mol
10,AGTTGCACGTGACGTA,0.502 kJ/mol
11,GTAGTCACGTGGCGCT,0.0837 kJ/mol
12,AATGCCACGTGGGAGT,-0.92 kJ/mol
13,GTTGTCACGTGAAACG,1.42 kJ/mol
14,GGCGTCACGTGTTTGT,0.753 kJ/mol
15,TGATTCACGTGTGAGG,1.17 kJ/mol
16,AGGTACACGTGTTGGT,0.209 kJ/mol
17,TGTGGCACGTGCAGTA,-0.628 kJ/mol
18,AGTTGCACGTGTGTAA,-0.0837 kJ/mol
19,TCTGTCACGTGTATGT,-0.167 kJ/mol
20,AATGTCACGTGAGGTG,1.67 kJ/mol
21,GTTTGCACGTGCGTGA,0 kJ/mol
22,ACTTGCACGTGGTGGC,-0.46 kJ/mol
23,ATGTGCACGTGGGATG,-0.711 kJ/mol

row,Sequence,relative binding free energy
1,AGAGGCACGTGTGGCA,0 kJ/mol
2,TTGTTCACGTGACAGG,1.38 kJ/mol
3,GAAAGCACGTGTGGGT,0.293 kJ/mol
4,TTAGGCACGTGATAAA,0.544 kJ/mol
5,TGAGTCACGTGGTACA,0.209 kJ/mol
6,TGTGACACGTGATTGT,1 kJ/mol
7,GTTAACACGTGGGGTG,-0.251 kJ/mol
8,AATGCCACGTGTGGGG,-0.293 kJ/mol
9,TTCTGCACGTGACGGT,0.502 kJ/mol
10,TGAGTCACGTGGTTTC,1.34 kJ/mol
11,GGGAACACGTGTTGTG,0.0418 kJ/mol
12,TTTTGCACGTGGCGAG,-0.209 kJ/mol
13,GATTGCACGTGCGCTT,0.628 kJ/mol
14,AAGGGCACGTGCTGGA,-1.05 kJ/mol
15,CATGACACGTGGATGG,-0.0418 kJ/mol
16,AGTATCACGTGGTTTT,0.335 kJ/mol
17,CAAAACACGTGGGGTT,0.167 kJ/mol
18,TTCGGCACGTGGTGCA,-0.879 kJ/mol
19,GTGTTCACGTGGTCTG,0.753 kJ/mol
20,TAGGTCACGTGGCGTC,-0.0418 kJ/mol
21,TTAAGCACGTGACGGG,-0.711 kJ/mol
22,TGGTTCACGTGGCCAG,0.753 kJ/mol
23,TAGAGCACGTGCGGTA,-0.586 kJ/mol

row,Sequence,relative binding free energy
1,ATGTGCACGTGGTCAT,-0.209 kJ/mol
2,ATAGTCACGTGTGTTA,0.46 kJ/mol
3,GCTTTCACGTGATTGT,1.26 kJ/mol
4,CGATGCACGTGCGGGT,-0.753 kJ/mol
5,TTTGCCACGTGGATAA,0.0837 kJ/mol
6,TATCGCACGTGGGGCG,-0.502 kJ/mol
7,TGCGTCACGTGGGGCG,-0.0837 kJ/mol
8,ATGTGCACGTGATTAG,0.335 kJ/mol
9,GGGACCACGTGGGTTG,-0.586 kJ/mol
10,TATGTCACGTGAGTTT,1.13 kJ/mol
11,GAGGGCACGTGGATGA,0 kJ/mol
12,CGACTCACGTGTTGTT,1.55 kJ/mol
13,GTCTACACGTGGCGGG,-0.167 kJ/mol
14,AATTGCACGTGTAATT,0.167 kJ/mol
15,TTTAACACGTGGTGGG,-0.167 kJ/mol
16,TTTGGCACGTGGTTTT,-0.502 kJ/mol
17,TAGAGCACGTGATATT,0.293 kJ/mol
18,GGTGACACGTGTGCGA,0.167 kJ/mol
19,TCGTTCACGTGATCGT,2.01 kJ/mol
20,ATTTTCACGTGGTTTA,0.753 kJ/mol
21,AAATTCACGTGGTCGG,0.795 kJ/mol
22,ATAATCACGTGGCTGT,0.0837 kJ/mol
23,TAGGTCACGTGAGTCA,1.13 kJ/mol
